The results in this text go back to the supplement of paper PMC7125110.

B1: glmS ribozyme (parent)
chain: AUAAAAGCGCCAGAACUACAGAAAUGUAGUUGACGAGGAGGAGGUUUAUCGAAUUUUCGGCGGAUGCCUCCAAA

What all share (details): with glucosamine-6-phosphate
Variants of B1 are the subject of series [1]. Kind of series: self-cleavage kobs at 640 uM GlcN6P; higher = faster cleavage; RNA array. An outline of the steps: (§1)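 Barcoded ribozyme variants, transcribed in situ by E. coli RNA polymerase on sequenced MiSeq chips, were followed via a hybridised Cy3 probe at 37 °C. Glucosamine-6-phosphate ranged from 40 μM to 10 mM in HEPES/KCl/Mg(OAc)2 buffer. kobs came from decay fits to per-tile medians, and kcat and KM from weighted Michaelis–Menten fits.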

Variants of B1 are the subject of series [2]. Kind of series: self-cleavage kobs at 160 uM GlcN6P; higher = faster cleavage; RNA array. A digest of the protocol: as §1
Variants of B1 are the subject of series [3]. Kind of series: self-cleavage kobs at 10000 uM GlcN6P; higher = faster cleavage; RNA array. A digest of the protocol: as §1
In series [4] the parent is B1. As to the kind of experiment: self-cleavage kobs at 2500 uM GlcN6P; higher = faster cleavage; RNA array. An outline of the steps: as §1

± gives the standard error. Variants at the floor of the assay are shown more often than the library holds them.

As for C10U A14G C16U A33C A48C G62C, in the series with glucosamine-6-phosphate [1], the “self-cleavage kobs at 640 uM GlcN6P” value is under 1e-05 s⁻¹.

As to A12U G32C G35C A42U, the “self-cleavage kobs at 640 uM GlcN6P” value in the series with glucosamine-6-phosphate [1] was under 1e-05 s⁻¹.

As for A12U C34U A36U U55G, the “self-cleavage kobs at 640 uM GlcN6P” value with glucosamine-6-phosphate [1] was under 1e-05 s⁻¹. For the same variant, in the series with glucosamine-6-phosphate [2], the “self-cleavage kobs at 160 uM GlcN6P” value is under 1e-05 s⁻¹. Besides, the “self-cleavage kobs at 10000 uM GlcN6P” value in the series with glucosamine-6-phosphate [3] was under 1e-05 s⁻¹.

As for C11A G38U A39U G60A, the “self-cleavage kobs at 640 uM GlcN6P” value with glucosamine-6-phosphate [1] was under 1e-05 s⁻¹. Also, the “self-cleavage kobs at 2500 uM GlcN6P” value in the series with glucosamine-6-phosphate [4] was under 1e-05 s⁻¹.

Consider A12G G44U C70G, for which the “self-cleavage kobs at 640 uM GlcN6P” value in the series with glucosamine-6-phosphate [1] was under 1e-05 s⁻¹. For the same variant, in the series with glucosamine-6-phosphate [4], the “self-cleavage kobs at 2500 uM GlcN6P” value was under 1e-05 s⁻¹.

For the variant C11G U55G C71U, in the series with glucosamine-6-phosphate [1], the “self-cleavage kobs at 640 uM GlcN6P” value was under 1e-05 s⁻¹.

Turning to G13A G44A C70U C71A, in the series with glucosamine-6-phosphate [1], the “self-cleavage kobs at 640 uM GlcN6P” value was under 1e-05 s⁻¹. Moreover, in the series with glucosamine-6-phosphate [2], the “self-cleavage kobs at 160 uM GlcN6P” value is under 1e-05 s⁻¹. Moreover, the “self-cleavage kobs at 2500 uM GlcN6P” value in the series with glucosamine-6-phosphate [4] is under 1e-05 s⁻¹.

For the variant A12C C61G G62A C71U, the “self-cleavage kobs at 640 uM GlcN6P” value in the series with glucosamine-6-phosphate [1] was under 1e-05 s⁻¹. For the same variant, the “self-cleavage kobs at 2500 uM GlcN6P” value with glucosamine-6-phosphate [4] was under 1e-05 s⁻¹.

Take G13A C16G G60A: the “self-cleavage kobs at 640 uM GlcN6P” value with glucosamine-6-phosphate [1] was under 1e-05 s⁻¹. Moreover, the “self-cleavage kobs at 160 uM GlcN6P” value with glucosamine-6-phosphate [2] is under 1e-05 s⁻¹.

Turning to G13A G35A G41U C68U, the “self-cleavage kobs at 640 uM GlcN6P” value in the series with glucosamine-6-phosphate [1] is under 1e-05 s⁻¹. In the series with glucosamine-6-phosphate [2], the “self-cleavage kobs at 160 uM GlcN6P” value was under 1e-05 s⁻¹. Also, the “self-cleavage kobs at 2500 uM GlcN6P” value with glucosamine-6-phosphate [4] is under 1e-05 s⁻¹.

In the case of A12U G29U A36C, the “self-cleavage kobs at 640 uM GlcN6P” value with glucosamine-6-phosphate [1] is under 1e-05 s⁻¹. Also, the “self-cleavage kobs at 160 uM GlcN6P” value in the series with glucosamine-6-phosphate [2] is under 1e-05 s⁻¹. For the same variant, the “self-cleavage kobs at 2500 uM GlcN6P” value with glucosamine-6-phosphate [4] was under 1e-05 s⁻¹.

Turning to C11A A33U A64C, the “self-cleavage kobs at 640 uM GlcN6P” value with glucosamine-6-phosphate [1] was under 1e-05 s⁻¹. For the same variant, the “self-cleavage kobs at 2500 uM GlcN6P” value with glucosamine-6-phosphate [4] is under 1e-05 s⁻¹.

As for C10U G60U C70G, in the series with glucosamine-6-phosphate [1], the “self-cleavage kobs at 640 uM GlcN6P” value was under 1e-05 s⁻¹. Further, the “self-cleavage kobs at 160 uM GlcN6P” value with glucosamine-6-phosphate [2] was under 1e-05 s⁻¹.

A12G G32U: the “self-cleavage kobs at 640 uM GlcN6P” value with glucosamine-6-phosphate [1] was determined as 0.000164 ± 1.8e-05 s⁻¹. In addition, the “self-cleavage kobs at 160 uM GlcN6P” value with glucosamine-6-phosphate [2] turned out to be 4.1e-05 ± 8.1e-06 s⁻¹. For the same variant, the “self-cleavage kobs at 2500 uM GlcN6P” value with glucosamine-6-phosphate [4] stood at 0.00055 ± 5.4e-05 s⁻¹. Also, the “self-cleavage kobs at 10000 uM GlcN6P” value in the series with glucosamine-6-phosphate [3] is 0.00144 ± 0.00014 s⁻¹.

For C11G U31G U56A, in the series with glucosamine-6-phosphate [1], the “self-cleavage kobs at 640 uM GlcN6P” value is under 1e-05 s⁻¹.

Take C11G G35U U57A C70U: in the series with glucosamine-6-phosphate [1], the “self-cleavage kobs at 640 uM GlcN6P” value is under 1e-05 s⁻¹. Moreover, the “self-cleavage kobs at 160 uM GlcN6P” value with glucosamine-6-phosphate [2] is under 1e-05 s⁻¹. Moreover, the “self-cleavage kobs at 2500 uM GlcN6P” value in the series with glucosamine-6-phosphate [4] was under 1e-05 s⁻¹.

In the case of A12G C67G, in the series with glucosamine-6-phosphate [1], the “self-cleavage kobs at 640 uM GlcN6P” value was found to be 8.36e-05 ± 8.2e-06 s⁻¹. For the same variant, in the series with glucosamine-6-phosphate [2], the “self-cleavage kobs at 160 uM GlcN6P” value is 2.45e-05 ± 1.1e-05 s⁻¹. Also, the “self-cleavage kobs at 2500 uM GlcN6P” value with glucosamine-6-phosphate [4] came to 0.000182 ± 1.7e-05 s⁻¹. In addition, the “self-cleavage kobs at 10000 uM GlcN6P” value with glucosamine-6-phosphate [3] turned out to be 0.000273 ± 1.9e-05 s⁻¹.

As for C10G U45A U49C, the “self-cleavage kobs at 640 uM GlcN6P” value with glucosamine-6-phosphate [1] was under 1e-05 s⁻¹. In addition, the “self-cleavage kobs at 160 uM GlcN6P” value with glucosamine-6-phosphate [2] was under 1e-05 s⁻¹.

For A12C U30A G35A, the “self-cleavage kobs at 640 uM GlcN6P” value with glucosamine-6-phosphate [1] is under 1e-05 s⁻¹.

Turning to A12U G32A G37U, the “self-cleavage kobs at 640 uM GlcN6P” value with glucosamine-6-phosphate [1] was under 1e-05 s⁻¹. Also, the “self-cleavage kobs at 2500 uM GlcN6P” value with glucosamine-6-phosphate [4] is under 1e-05 s⁻¹.

For C10G U49C G66C, in the series with glucosamine-6-phosphate [1], the “self-cleavage kobs at 640 uM GlcN6P” value was under 1e-05 s⁻¹. The “self-cleavage kobs at 2500 uM GlcN6P” value with glucosamine-6-phosphate [4] was under 1e-05 s⁻¹.

On to C10G C58G G62C, for which, in the series with glucosamine-6-phosphate [1], the “self-cleavage kobs at 640 uM GlcN6P” value is under 1e-05 s⁻¹.

As to A12U G60U U65C, the “self-cleavage kobs at 640 uM GlcN6P” value with glucosamine-6-phosphate [1] was under 1e-05 s⁻¹. For the same variant, the “self-cleavage kobs at 160 uM GlcN6P” value with glucosamine-6-phosphate [2] is under 1e-05 s⁻¹. Also, in the series with glucosamine-6-phosphate [4], the “self-cleavage kobs at 2500 uM GlcN6P” value is under 1e-05 s⁻¹.

For C11G A42U G63U, the “self-cleavage kobs at 640 uM GlcN6P” value with glucosamine-6-phosphate [1] was under 1e-05 s⁻¹.

Take C10G C34G: in the series with glucosamine-6-phosphate [1], the “self-cleavage kobs at 640 uM GlcN6P” value was under 1e-05 s⁻¹. Besides, the “self-cleavage kobs at 160 uM GlcN6P” value in the series with glucosamine-6-phosphate [2] is under 1e-05 s⁻¹. In the series with glucosamine-6-phosphate [4], the “self-cleavage kobs at 2500 uM GlcN6P” value was under 1e-05 s⁻¹. For the same variant, the “self-cleavage kobs at 10000 uM GlcN6P” value in the series with glucosamine-6-phosphate [3] was under 1e-05 s⁻¹.

Take A12U A53C C58U G62A: in the series with glucosamine-6-phosphate [1], the “self-cleavage kobs at 640 uM GlcN6P” value was under 1e-05 s⁻¹.

For the variant A12G A36U, in the series with glucosamine-6-phosphate [1], the “self-cleavage kobs at 640 uM GlcN6P” value is under 1e-05 s⁻¹.
